Results reported in article PMC12136788.
The list shows a part of the results.

B1: chr10:112364898:112364899:-_ENSMUSG00000074748_ENSMUST00000099276|mus_hu|FALSE|FALSE (ssRNA)
RNA: GGGAGUUCUACAGUCCGACGAUCUUUUUCUUGGAUUUCCCAAACUGAAACUGUUAGUAUCCAGAUCUUGCACCUGACAUUUACUUGUCUCAGAGAAGCCCAUAACAGAGGUUCAGAUAUCAAAGGAGCAGUCCCACUGCAGGCCAACAGAGGAUUGAGCAUCA
B2: chr17:61910164:61910165:-_ENSG00000108604_ENST00000448276|hu_hu|FALSE|FALSE (ssRNA)
RNA: GGGAGUUCUACAGUCCGACGAUCAAGUAUAAGGCUUUGGGGACCAAGCAACAAGGAAUCCUAUCACUACAUUUAUAAGACUAAAGCUGGAGAGUAGAGGGUGACAGCAGACACUCCUCACCCCAGCCUACGUGUCUGCGGCCCCAACAGAGGAUUGAGCAUCA
B3: chr7:141438946:141438947:+_ENSG00000106028_ENST00000265304|hu_mus|hu_hu_hu_mus_True|78_108 (ssRNA)
RNA: GGGAGUUCUACAGUCCGACGAUCGACUACCUGUAAUUAACACAGGUCUUCGAAACAUUCUAUUUUCUUUUCUUACAACCUAAUCUUUAGGCUUUUCCUAAAGGAAAGAAAGAAAAGAGAAAAAUGAUAAAUCAAGAAACUACACAACAGAGGAUUGAGCAUCA
B4: chr15:78834838:78834839:+_ENSG00000041357_ENST00000044462|hu_hu|FALSE|FALSE (ssRNA)
RNA: GGGAGUUCUACAGUCCGACGAUCAUCAAGAAGCUUGUGGAUGUUGCGUCUCUCUGCUGCAAGCAAAACACCAUCAUUUGCUAAAAUUCCCAAACAGGUGCCUGCAUGUCCAAUAGCUUCCAUGGCAUAUUCAACUUGGUAUAACAACAGAGGAUUGAGCAUCA
B5: chr6:36759938:36759939:-_ENSMUSG00000029838_ENSMUST00000101534|mus_mus|FALSE|FALSE (ssRNA)
RNA: GGGAGUUCUACAGUCCGACGAUCGGACGACAUUUUUUGGCUUGCAGAGGUCCUCGCUGACUAGCUGGCUGCCUUUGUUGCAAAGUGCGGGCGAGGUUUCUGCAGACUCCAGGUAUCGCUGGCUGAUGCUCCUGCCUGGGCGGCCAACAGAGGAUUGAGCAUCA
B6: chr4:25749455:25749456:-_ENSG00000091490_ENST00000264868|hu_hu|hu_hu_hu_mus_False|38_88 (ssRNA)
RNA: GGGAGUUCUACAGUCCGACGAUCGCACUAUGACCUCUAGAAAAAUCAUUCAAGGAGAAAAAUGUAAACCAAUGUACAAUGUUAUCGCCUUCCCUGUAUUUCCAGGCUUUGUCUCAAGGCUCCUUCUAGCUGCUGGAUUUGGGACAACAGAGGAUUGAGCAUCA
B7: chr5:138700276:138700277:+_ENSG00000120727_ENST00000265192|hu_mus|motif|central (ssRNA)
RNA: GGGAGUUCUACAGUCCGACGAUCUUCCAGCAUUUCUUGGAAACAGCGUUCAAUAAAUUCUUCUUCCCACAACUCCUCUUCGGUUUGUCUGUUGAAUUCCUCUUCAUUUUCCAUCCACAUGUACUCUGCAAAUGGAUUAUCCUCCAACAGAGGAUUGAGCAUCA
B8: chr16:48972413:48972414:-_ENSMUSG00000064061_ENSMUST00000121869|mus_hu|FALSE|FALSE (ssRNA)
RNA: GGGAGUUCUACAGUCCGACGAUCAGGUAAAUCUUCAUCUUCUGUAGGAUCUAUGUCAAACCAAUGGUCAUUUUUGUCUCCAAUUUCUUGUAAGCUUUUAUGAAAUUCUAGCAGUCCUCCAUUAUAUCUCUUUUGAGCACAUCGCAACAGAGGAUUGAGCAUCA
B9: chr10:1038518:1038519:+_ENSG00000107937_ENST00000545048|hu_hu|hu_hu_hu_mus_False|48_68 (ssRNA)
RNA: GGGAGUUCUACAGUCCGACGAUCCAGUCUGUCAUGGUAAUUCUGUUGAGUAAAUUUGACUUUUCUCAUGUAAAAAUGUCGAAUCCGAUGUAUUUGGUAAUGUUUAUGAAUAACCGUUGGAGUCUUUCGUUGAGUCUUGGAUAACAACAGAGGAUUGAGCAUCA
B10: chr14:103803487:103803488:+_ENSG00000100664_ENST00000558506|hu_mus|hu_hu_hu_mus_True|8_78 (ssRNA)
RNA: GGGAGUUCUACAGUCCGACGAUCGAGUUUAUGAUGUGUGUCAAGCAUGCCUCGGUAGCCACAGGCUUUACAAGAAUUACCUAUUGUUUGCUUCUUUGGAUUGACAUGCAGAUCUGUUUCAGGAUUCUCACAUUCAGGACAGAGCAACAGAGGAUUGAGCAUCA
B11: chr7:54825262:54825263:-_ENSG00000132432_ENST00000352861|hu_hu|hu_hu_hu_mus_False|78_98 (ssRNA)
RNA: GGGAGUUCUACAGUCCGACGAUCCUGCCGGCUGGGCACAAACUGCAGCAUUACCUGCAUGACUGCCGUUGGAUGGCGGAUUGAGAGCGUAGAGACACGUAGCUCAGGAGAGAACCGAGCCCAACGGAACCGGAAGCUGGCAACCAACAGAGGAUUGAGCAUCA
B12: 48337146_48368176_1878_3pUTR_ENSG00000102910_ENST00000285737|human|control|control (ssRNA)
RNA: GGGAGUUCUACAGUCCGACGAUCGUCACUGAUAGAUUCAGGUUUUUCAUCUUCUAAGAUGUGUUCUCUGCAACCUUCUCUCUCAGUCACAUCAGAACGGUCCAACUUGGCUUCCUUAUGCUGUCCUUCUGCCACCUUCACGGCCAACAGAGGAUUGAGCAUCA
B13: chr8:117878989:117878990:-_ENSG00000164754_ENST00000297338|hu_hu|hu_hu_hu_mus_True|1_1 (ssRNA)
RNA: GGGAGUUCUACAGUCCGACGAUCCCAGAGGCCCUCGUUUACUGAGGACAAAAUGUGCGUAGAACAUUUUUCUUAUUUGCUAUGAAAUAAGAAGAAACCUGGAUCUCGGCGGGGAGCCGGGAGGGGUGGGUGGCCCGGGGGAGGCAACAGAGGAUUGAGCAUCA
B14: chrX:100668055:100668056:+_ENSG00000126945_ENST00000316594|hu_hu|FALSE|FALSE (ssRNA)
RNA: GGGAGUUCUACAGUCCGACGAUCAAGUUCUACAUAGCUGUGAUCGUAAGCACCCCCACUUGUUCCUGCAGUAGAAUUUAAGAAGAGCUCCACAUAUCUGUGUUGCAUAUUAGCUUUGUCUUUUGCCAUAGCUGCCACAGCAUCCAACAGAGGAUUGAGCAUCA
B15: chr12:39763582:39763583:-_ENSG00000139116_ENST00000544797|hu_mus|hu_hu_hu_mus_False|78_108 (ssRNA)
RNA: GGGAGUUCUACAGUCCGACGAUCCUCUAAGAAUUGGGCAUUCACUUUGAAUUCAGGAGCAGGAAGCCCGUUUUUAAUCGCUGAGGUCUUUUUCUCAUCAAUACUCUUGAACAGGUGUCUAACAGCACGAGAGAUGAUGCCCUGCAACAGAGGAUUGAGCAUCA
B16: chr7:128048437:128048438:+_ENSMUSG00000035064_ENSMUST00000047875|mus_mus|FALSE|FALSE (ssRNA)
RNA: GGGAGUUCUACAGUCCGACGAUCGACACAGCACACAAGUGAAGAUCAGAAGACAACUUGCAGGAGUUUGUUCCCUGCUUCCACGCGUGGGUCCCAAGAACAGAACUCAGAUUGUCAGGUGAGGGUCGGCAGGAGCUUCAUCCACAACAGAGGAUUGAGCAUCA
B17: chr1:29344824:29344825:+_ENSG00000159023_ENST00000356093|hu_hu|motif|central (ssRNA)
RNA: GGGAGUUCUACAGUCCGACGAUCCACGCCAUGGAGUUCUGGGUCGUAGUCUCCCAGUUCAGACUGGAUGGUGUAAGAACCGGAUAAUGCUAAGGUUGCAAAGGAACAGGGCAGACGUCCUGCAACUAUGUCCUGCCGAAGCUGCAACAGAGGAUUGAGCAUCA
B18: chr9:72186818:72186819:+_ENSMUSG00000038535_ENSMUST00000098576|mus_mus|motif|central (ssRNA)
RNA: GGGAGUUCUACAGUCCGACGAUCAGUUUUUAUUUCAGAAAGACGUUCAGAAGUUGGGAUACAAACAGAAACUUGCUCGGCGGGAACUCGGCAAGAAUGAGUUUCAUGCUGACUUAAGUGUGUAGCCAUAUUAUCUAAGCCAGACAACAGAGGAUUGAGCAUCA
B19: chrX:98417731:98417732:-_ENSMUSG00000046032_ENSMUST00000120389|mus_mus|FALSE|FALSE (ssRNA)
RNA: GGGAGUUCUACAGUCCGACGAUCGUUACUGGGCGGCCCGUAAGCGUCGGUCAGGUCUUGGGGCUUCGAGUUAAGGCGCCUAGUGUCAGCCACUGCGGUGUCCGACAUCUUUCCGAAGAAGAGCCCGGUACCGGCGAAGGGGGUCAACAGAGGAUUGAGCAUCA
B20: chr7:103008174:103008175:+_ENSG00000161057_ENST00000292644|hu_mus|FALSE|FALSE (ssRNA)
RNA: GGGAGUUCUACAGUCCGACGAUCACUCAUUGAGCGAGCGUGAAUCUUAAAGAUGUGCGUUCGACCCUCUAAGUCAGGUAAGCUGAACUCAAUCUUCCUGUCCAGCCUCCCCGGUCUCAUGAGCGCUGGGUCCAGAGUGUCAGGCAACAGAGGAUUGAGCAUCA
B21: chr14:32562060:32562061:+_ENSG00000100852_ENST00000539826|hu_mus|motif|central (ssRNA)
RNA: GGGAGUUCUACAGUCCGACGAUCCUUUAUUUGUGAUUCAUUAAAUUUACGAGGAUAUGUACCAGUAGGUACGUCGGCAAAAGGACACUGCAAUUUGUUGGCCAACUGCUGACCCUGGUGCCUGAGAAUUGGUAGAUUUUUACUCAACAGAGGAUUGAGCAUCA
B22: 105239393_105239671_1208_CDS_ENSG00000142208_ENST00000407796|human|control|control (ssRNA)
RNA: GGGAGUUCUACAGUCCGACGAUCGUCCACUGCACGGCCGUAGUCAUUGUCCUCCAGCACCUCGGGGGCCAGGUACUCAGGUGUGCCGCAAAAGGUCUUCAUGGUGGCACCGUCCUUGAUCCCCUCCUUGCACAGCCCGAAGUCCAACAGAGGAUUGAGCAUCA

Target: T1, UNK ZnF1-3 (human, UniProt Q9C0B0 31-174)
T1 sequence: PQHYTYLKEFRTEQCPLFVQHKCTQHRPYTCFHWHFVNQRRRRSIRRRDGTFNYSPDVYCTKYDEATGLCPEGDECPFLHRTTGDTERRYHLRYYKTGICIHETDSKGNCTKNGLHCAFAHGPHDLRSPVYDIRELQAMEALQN
Experiment: nsRBNS (natural sequence RNA bind-n-seq); RBNS binding buffer (assumed for nsRBNS): 25 mM Tris pH 7.5, 150 mM KCl, 3 mM MgCl2, 0.01% Triton X-100, 500 ug/ml BSA, 20 U/ml SUPERase-In, 4 C; UNK is unkempt and MSI1 is Musashi-1; names of the RNAs are library labels; protein concentration not given here; high values mean tight binding

Binder	binding signal
B1	1.34 enrichment R
B2	0.894 enrichment R
B3	0.258 enrichment R
B4	0.942 enrichment R
B5	0.657 enrichment R
B6	0.994 enrichment R
B7	0.534 enrichment R
B8	0.467 enrichment R
B9	0.519 enrichment R
B10	1.11 enrichment R
B11	1.38 enrichment R
B12	0.556 enrichment R
B13	1.56 enrichment R
B14	0.847 enrichment R
B15	1.69 enrichment R
B16	1.33 enrichment R
B17	0.723 enrichment R
B18	1.71 enrichment R
B19	1.11 enrichment R
B20	0.503 enrichment R
B21	0.962 enrichment R
B22	0.873 enrichment R
